# Out of some 150,000 compounds screened, about 540 (0.36%) showed an effect of 50% or more. This is one part of the list.
# Tested on: Plasmodium falciparum
# Assay: Primary screen in NF54 nanoGlo assay, in single point, at 2uM, 72h; a lower Z score goes with more inhibition
# Format: functional, Erythrocyte
# Conditions: timepoint 72 hour
SMILES,% Inhibition,Z score
Cc1oc(CNC(=O)c2ccccc2Cl)nc1C(=O)N1CCC(C)CC1,-1%,0.18
CCc1nc2c(C(=O)N3CCOc4c(C)cc(C)cc43)ccnc2[nH]1,71%,-10.67
Cc1cnc(NC(=O)CC2(N3Cc4ccccc4C3=O)CCOCC2)s1,-18%,2.24
Cc1csc2c(N3CCCn4nc(CCC(=O)O)cc4C3)ncnc12,-5%,0.91
O=C(N1CC(Cc2ccsc2)C1)[C@@]12CCC[C@@H]1C2,-6%,0.61
CCC(=O)N[C@@H](CNC(=O)OC(C)(C)C)C1CC1,-4%,0.48
COc1ccccc1OCCOc1cc(C)n(C)n1,-19%,1.91
O=S(=O)(N1CCCCCC1)N1CCOc2ccccc2C1,-13%,1.53
CCOc1ncccc1C(=O)Nc1ccn(CCCN2CCCC2)n1,-14%,2.3
CC(C)(C)[C@@H](CO)NCc1cncs1,-12%,1.52
Cc1ccc(C(=O)Nc2nnc(-c3cccnc3)o2)cc1C,-7%,1.12
Cc1nc(NC(=O)N[C@H]2COC[C@H]2n2ccnn2)nn1C,-10%,1.61
CNC(=O)c1cc(Br)cnc1NC,34%,-0.98
COc1cccc2c1[C@H](C(=O)Nc1c[nH]nn1)CC2,-7%,0.93
Cc1cc(=O)n2c3c(cc(S(=O)(=O)NCCOc4ccccc4)cc13)CCC2,-7%,0.84
Cc1csc(S(=O)(=O)NC[C@H]2CN(C)CCN2C)c1,-9%,1.77
CC(C)(C(=O)N1CCC(c2ccsc2)CC1)c1c[nH]cn1,-1%,0.13
O=S(=O)(NC1CCCC1)c1ccc2c(c1)-c1oncc1CO2,-6%,0.88
O=C(CCn1cccn1)N1CCCC[C@@H]1CCc1ccc(O)cc1,-3%,0.27
O=C(Cn1c(=O)cnc2cc(S(=O)(=O)N3CCCCC3)ccc21)Nc1ccc2c(c1)OCCO2,3%,-0.26
CC(C)(O)C1CCCN1C(=O)NC1CCCCC1n1cccn1 (stereo not given),-3%,0.27
O=C(C[C@H]1CCCOC1)N1CCC(Oc2cccc(Cl)c2)CC1,-8%,1.29
COC[C@H]1CCCN(c2nnc(-c3scnc3C)n2CC(C)C)C1,-8%,1.19
CCCN(C(=O)Cc1n[nH]c(=O)[nH]1)[C@H]1CCCC[C@@H]1O,-9%,1.25
CC(C)(C)NC(=O)NCC[C@H](O)c1cccc(Cl)c1,-10%,1.33

# From ChEMBL document CHEMBL4888484, “Replenishing the malaria drug discovery pipeline: Screening and hit evaluation of the MMV Hit Generation Library 1 (HGL1) against asexual blood stage Plasmodium falciparum ,using a nano luciferase reporter read-out” (2022)
